Measurements from PubChem BioAssay AID686978 (National Center for Advancing Translational Sciences (NCATS), 2013).
Among all 420,000 compounds or so, about 64,000 (15%) were called active. The shares of active, inactive and inconclusive entries below differ from those in the screen. Calls come from the whole dose curve; as a rule, active = well fitted inhibition curve with a large enough effect; inconclusive = small, poorly fitted or top-dose-only effect; inactive = flat fitted curve, though single readings scatter. No potency is given beside an inconclusive call; the fits are too rough.
% is set by controls: 0 for no effect and ±100 for the full control effect; potency is the fitted concentration of half-maximal effect; tags give direction and shape of the fitted curve.

Test: qHTS for Inhibitors of human tyrosyl-DNA phosphodiesterase 1 (TDP1): qHTS in cells in absence of CPT; note: nearly all actives have a fitted effect of over 55% in size
Details: DT40 Tdp1-/- hTDP1 cells, no CPT, ATP luminescence, 48 h; activity change, negative = growth inhibition: at 46.2 µM (top of the series) unless noted
Outline: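 Growth kinetics read by CellTiter-Glo luminescence after ≥48 hr at 37 °C. Cells: DT40 Tdp1-/- stably carrying human TDP1, 400 per well, compound exposure in the absence of CPT (DMSO vehicle).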
For O=C(N/N=C/c1cccc(Oc2ccccc2)c1)c1cccc(O)c1, the Potency was inconclusive [inhibitor, single point].
In the case of O=C(N/N=C/c1ccc(Br)o1)/C(=C/c1ccc([N+](=O)[O-])cc1)NC(=O)c1ccccc1, the Potency is reported as “inactive”.
With CC(=O)c1cccc(S(=O)(=O)N2CCCC(c3nc(-c4ccc(C)o4)no3)C2)c1 (stereo not given) the Potency was inconclusive [inhibitor, single point].
With CC1=NN(c2ccc(C)cc2)C(=O)/C1=C/c1ccc(-c2cc([N+](=O)[O-])ccc2O)o1 the Potency was inconclusive [inhibitor, single point].
With COC(=O)[C@H]1C[C@H](OC(=O)Nc2cccs2)[C@@]2(O)CN(S(=O)(=O)c3ccc(C)cc3)CC2[C@H]1C(=O)OC (stereo not given in full) the Potency was inconclusive [inhibitor, partial curve].
For COc1ccc(/C=C2\SC(N3CCCCC3)=NC2=O)cc1OC, the Potency was active: 20.6 µM.
For COc1cccc(N2CC(NC(=O)COc3ccc4ccccc4c3)CC2=O)c1 (stereo not given), the Potency was inconclusive [inhibitor, single point].
In the case of CCc1nnc(SCC(=O)Nc2cc(Cl)c(OC)cc2OC)c2cc3oc(C)cc3n12, the Potency is reported as inconclusive [inhibitor, partial curve].
In the case of COc1cccc(C(=O)Nc2cccc3ccccc23)c1, the Potency is reported as inconclusive [inhibitor, single point].
For Brc1ccc(C=C2C=c3ccccc3=C2)cc1, the Potency was “inactive”.
For CCOC(=O)Cc1c(C)nc2c(-c3ccc(Cl)cc3)cnn2c1C, the Potency was inconclusive [inhibitor, single point].
With COCCCN1C(=O)c2ccc(C(=O)NCc3ccccn3)cc2C1=O the Potency was “inactive”.
For Cn1cc(S(=O)(=O)c2ccccc2)c(=O)c2cc(F)c(N3CCCCC3)cc21, the Potency was “inactive”.
In the case of Cc1noc2nc(C(=O)O)nc(N3CCCCC3)c12, the Potency is reported as inconclusive [inhibitor, single point].
With Cc1cc(NC(=O)CSc2nnc(COc3cccc(C)c3C)n2Cc2ccco2)no1 the Potency was “inactive”.
For COc1ccc(OC)c(-c2noc(CSc3nnc(Cc4ccccc4)n3-c3cccc(C)c3)n2)c1, the Potency was active: 23.1 µM.
In the case of COc1cccc(CNC(=O)c2cc(S(=O)(=O)N3CCOCC3)ccc2N2CCCC2)c1, the Potency is reported as inconclusive [inhibitor, single point].
In the case of NNC(=O)c1ccc(COc2ccc3ccccc3c2)cc1, the Potency is reported as active: 20.6 µM.
With Nc1nc(SCC(=O)Nc2ccc(OCc3ccccc3)cc2)n[nH]1 the activity change, negative = growth inhibition was inconclusive: -31.9% [inhibitor].
In the case of N#Cc1ccccc1CSc1ccc(-c2nc3ccccc3[nH]2)cn1, the Potency is reported as inconclusive [inhibitor, partial curve].
For CC(=O)c1ccc(NC(=O)CCn2nc(C)c(S(=O)(=O)N3CCC(C)CC3)c2C)cc1, the Potency was inconclusive [inhibitor, single point].
In the case of CN1CCN(c2ncc3nc(-c4ccc(Cl)cc4)c(=O)n(C)c3n2)CC1, the Potency is reported as inconclusive [inhibitor, single point].
With COc1ccc(CCN2C(=O)c3ccccc3C2c2nnnn2-c2c(C)cccc2C)cc1OC (stereo not given) the Potency was active: 11.6 µM.
With COc1ccccc1N1CCN(CC(=O)Nc2cccc(F)c2)CC1 the Potency was inconclusive [inhibitor, partial curve].
In the case of COCc1c(C(=O)NC2CCCCC2)sc2cccc(F)c12, the Potency is reported as inconclusive [inhibitor, partial curve].
With O=C(CCN1CCN(c2ccccc2)CC1)Nc1ccc(OCc2ccccc2)cc1 the Potency was inconclusive [inhibitor, partial curve].
In the case of O=C(c1cc(-c2ccco2)nc2ccccc12)N1CCN(Cc2ccccc2)CC1, the Potency is reported as inconclusive [inhibitor, single point].
In the case of NC(=S)NNC(=O)[C@@H]1CCCC[C@@H]1C(=O)O, the Potency is reported as “inactive”.
With Cc1cc2c3c(c1C)C1(C(=O)N3C(C)(C)CC2C)C(C#N)=C(N)Oc2cc(O)ccc21 (stereo not given) the Potency was inconclusive [inhibitor, single point].
In the case of CCN(c1ccc(OC)cc1)S(=O)(=O)c1nnc(NC(=O)CC(C)C)s1, the Potency is reported as “inactive”.
In the case of CCOCCNC(=O)c1ccccc1C(=O)NCCOCC, the Potency is reported as “inactive”.
With CN(C)Cc1c(C(=O)N/N=C/c2ccncc2)nnn1-c1nonc1N the Potency was “inactive”.
With Cc1cc(C(=O)COC(=O)c2ccc(O)cc2O)c(C)n1-c1ccc(OC(F)F)cc1 the Potency was active: 7.31 µM.
For CNCCCOc1cccc(Oc2ccccc2)c1, the Potency was inconclusive [inhibitor, single point].
For CCCCCCn1c(=O)n2n(c1=O)[C@@H]1CN(S(=O)(=O)c3ccc(C)cc3)C[C@]1(O)[C@@H](OC(=O)NCc1ccccc1F)C2, the Potency was inconclusive [inhibitor, single point].
For CCn1cc(CN2CCC(n3nccc3NC(=O)CCCc3ccccc3)CC2)c(C)n1, the Potency was “inactive”.
In the case of CC(=O)c1ccc(NC(=O)C2CCN(S(=O)(=O)c3cccnc3)CC2)cc1, the Potency is reported as “inactive”.
With O=C(NCCCN1CCOCC1)c1cc(S(=O)(=O)N2CCCCC2)ccc1Cl the Potency was “inactive”.
For Cn1c(=O)c2c(ncn2CC(=O)OCC(=O)Nc2cccc(C#N)c2)n(C)c1=O, the Potency was “inactive”.
For COc1cccc(C(NC(C)=O)c2ccc3cccnc3c2O)c1 (stereo not given), the Potency was active: 0.92 µM.
With CCOc1cc2nc(-c3ccc(OC)c(OC)c3)nc(N3CCOCC3)c2cc1OC the Potency was inconclusive [inhibitor, single point].
With Cc1ccc(S(=O)(=O)N(C)c2ccc(OCC(=O)Nc3nnc(C4CC4)s3)cc2)cc1 the Potency was inconclusive [inhibitor, single point].
For CCCCOc1ccc(C2(C)NC(=O)N(C)C2=O)cc1 (stereo not given), the Potency was inconclusive [inhibitor, partial curve].
With CCC(=O)N1CCc2cc(OC)c(OC)cc2C1COc1ccc(OC)cc1 (stereo not given) the Potency was “inactive”.
For CC(=O)Nc1sc2c(c1C#N)CCC(C)C2 (stereo not given), the Potency was inconclusive [inhibitor, partial curve, poor fit].
